The values that follow come from publication PMC13434183.

Positions count from the first letter of the chain named. No constants are given. Whether binding was seen depends on the method and setting. Binding seen in cells or lysates may run through a third protein. Some binding calls cover weakened binding; strength is not graded here.

What all share (experiment): co-IP; FLAG-IP (anti-Flag magnetic beads, 90 min, 4 °C, after pre-clearing with anti-HA beads) of reconstituted RIPK3 from lysates of Ripk3-/- mouse dermal fibroblasts; 5 µM IDN-6556 ± 10 ng/mL doxycycline overnight, then TNF/Smac mimetic/IDN-6556 (TSI); lysis buffer 50 mM Tris-HCl pH 7.4, 1% Triton X-100, 150 mM NaCl; immunoblot
(In general: A western blot detects proteins with antibodies after separation by electrophoresis.)

For assay [1], the target named is T1, RIPK3^D143N (mouse, full-length) (mouse) (UniProt Q9QZL0).
T1 sequence: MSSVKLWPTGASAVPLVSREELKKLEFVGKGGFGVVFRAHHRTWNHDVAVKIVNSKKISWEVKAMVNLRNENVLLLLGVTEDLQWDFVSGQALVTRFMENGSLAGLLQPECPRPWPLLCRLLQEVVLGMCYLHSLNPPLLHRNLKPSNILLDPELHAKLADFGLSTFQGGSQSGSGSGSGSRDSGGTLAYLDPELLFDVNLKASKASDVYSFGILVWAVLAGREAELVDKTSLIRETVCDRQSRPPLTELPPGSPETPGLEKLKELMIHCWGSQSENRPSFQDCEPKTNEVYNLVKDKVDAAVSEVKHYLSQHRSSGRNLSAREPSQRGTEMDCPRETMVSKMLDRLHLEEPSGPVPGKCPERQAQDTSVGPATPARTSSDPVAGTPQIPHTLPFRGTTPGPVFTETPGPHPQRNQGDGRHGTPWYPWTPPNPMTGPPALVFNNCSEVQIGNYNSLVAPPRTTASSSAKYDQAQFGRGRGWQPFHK

For assay [2], the target named is T2, RIPK3^D161N (mouse, full-length) (mouse) (UniProt Q9QZL0).
T2 sequence: T1 sequence with N143D, D161N

The target in assay [3] is T3, RIPK3^K51A (mouse, full-length) (mouse) (UniProt Q9QZL0).
T3 sequence: T1 sequence with K51A, N143D

The target of assay [4] is wild-type RIPK3 (mouse, full-length) (mouse) (UniProt Q9QZL0).
Assay [5] addresses wild-type RIPK3 (mouse, full-length) (mouse), Q9QZL0. The settings on record: remark: other sources report otherwise.

B1: Caspase-8 (protein, UniProt O89110 1-480)
chain: MDFQSCLYAIAEELGSEDLAALKFLCLDYIPHKKQETIEDAQKLFLRLREKGMLEEGNLSFLKELLFHISRWDLLVNFLDCNREEMVRELRDPDNAQISPYRVMLFKLSEEVSELELRSFKFLLNNEIPKCKLEDDLSLLEIFVEMEKRTMLAENNLETLKSICDQVNKSLLGKIEDYERSSTERRMSLEGREELPPSVLDEMSLKMAELCDSPREQDSESRTSDKVYQMKNKPRGYCLIINNHDFSKAREDITQLRKMKDRKGTDCDKEALSKTFKELHFEIVSYDDCTANEIHEILEGYQSADHKNKDCFICCILSHGDKGVVYGTDGKEASIYDLTSYFTGSKCPSLSGKPKIFFIQACQGSNFQKGVPDEAGFEQQNHTLEVDSSSHKNYIPDEADFLLGMATVKNCVSYRDPVNGTWYIQSLCQSLRERCPQGDDILSILTGVNYDVSNKDDRRNKGKQMPQPTFTLRKKLFFPP
Take B1: the binding result is recorded as “binds” in assay [1], “no binding” in assay [2], “no binding” in assay [3] and “binds” in assay [4].

B2: RIPK1, Q60855 1-656 (protein)
chain: MQPDMSLDNIKMASSDLLEKTDLDSGGFGKVSLCYHRSHGFVILKKVYTGPNRAEYNEVLLEEGKMMHRLRHSRVVKLLGIIIEEGNYSLVMEYMEKGNLMHVLKTQIDVPLSLKGRIIVEAIEGMCYLHDKGVIHKDLKPENILVDRDFHIKIADLGVASFKTWSKLTKEKDNKQKEVSSTTKKNNGGTLYYMAPEHLNDINAKPTEKSDVYSFGIVLWAIFAKKEPYENVICTEQFVICIKSGNRPNVEEILEYCPREIISLMERCWQAIPEDRPTFLGIEEEFRPFYLSHFEEYVEEDVASLKKEYPDQSPVLQRMFSLQHDCVPLPPSRSNSEQPGSLHSSQGLQMGPVEESWFSSSPEYPQDENDRSVQAKLQEEASYHAFGIFAEKQTKPQPRQNEAYNREEERKRRVSHDPFAQQRARENIKSAGARGHSDPSTTSRGIAVQQLSWPATQTVWNNGLYNQHGFGTTGTGVWYPPNLSQMYSTYKTPVPETNIPGSTPTMPYFSGPVADDLIKYTIFNSSGIQIGNHNYMDVGLNSQPPNNTCKEESTSRHQAIFDNTTSLTDEHLNPIRENLGRQWKNCARKLGFTESQIDEIDHDYERDGLKEKVYQMLQKWLMREGTKGATVGKLAQALHQCCRIDLLNHLIRASQS
Consider B2, for which, in assay [5], the binding entry was “binds”.
